Source: the supplement of paper PMC8728848
The other results are listed elsewhere or left out.

What was measured:
Assay in all cases: glycan array binding signal (z-score within array); higher = stronger binding
Conditions in all cases: glycan notation: IUPAC condensed, linker removed
[1] = target: Neu5Ac(a2-8)Neu5Ac(a2-3)[GalNAc(b1-4)]Gal(b1-4)Glc
Outline: (§1)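 Arrays were curated from the Consortium for Functional Glycomics database, 3228 in total, and kept only where the protein sequence was available. Binding is expressed as a within-array Z-score. This score was averaged across arrays of the same protein sequence at different concentrations or buffers and across linkers, and negative values can be read as non-binding.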

[2] = target: Neu5Ac(a2-8)Neu5Ac(a2-8)Neu5Ac
Outline: as §1

[3] = target: Neu5Ac(a2-8)Neu5Ac(a2-8)Neu5Ac(a2-3)Gal(b1-4)Glc
Outline: as §1

[4] = target: Neu5Ac(a2-8)Neu5Ac(a2-8)Neu5Ac(a2-3)[GalNAc(b1-4)]Gal(b1-4)Glc
Outline: as §1

[5] = target: Neu5Ac(a2-8)Neu5Ac(a2-8)Neu5Ac(a2-8)Neu5Ac(a2-3)[GalNAc(b1-4)]Gal(b1-4)Glc
Outline: as §1

Neu5Ac(b1-6)GalNAc = target: Neu5Ac(b1-6)GalNAc
Outline: as §1

[6] = target: Neu5Ac(b2-6)Gal(b1-4)GlcNAc
Outline: as §1

[7] = target: Neu5Ac9Ac(a2-6)Gal(b1-4)GlcNAc
Outline: as §1

[8] = target: Neu5Gc(a2-3)Gal(b1-3)GlcNAc
Outline: as §1

[9] = target: Neu5Gc(a2-3)Gal(b1-3)[Fuc(a1-4)]GlcNAc
Outline: as §1

Neu5Gc(a2-3)Gal(b1-4)Glc = target: Neu5Gc(a2-3)Gal(b1-4)Glc
Outline: as §1

[10] = target: Neu5Gc(a2-3)Gal(b1-4)GlcNAc
Outline: as §1

[11] = target: Neu5Gc(a2-3)Gal(b1-4)[Fuc(a1-3)]GlcNAc
Outline: as §1

[12] = target: Neu5Gc(a2-6)Gal(b1-4)GlcNAc
Outline: as §1

Neu5Gc(a2-6)GalNAc = target: Neu5Gc(a2-6)GalNAc
Outline: as §1

B1: DCAL1 (Homo sapiens), Q8IZS7 (protein)
chain: MVSNFFHVIQVFEKSATLISKTEHIGFVIYSWRKSTTHLGSRRKFAISIYLSEVSLQKYDCPFSGTSFVVFSLFLICAMAGDVVYADIKTVRTSPLELAFPLQRSVSFNFSTVHKSCPAKDWKVHKGKCYWIAETKKSWNKSQNDCAINNSYLMVIQDITAMVRFNI
For B1, the “glycan array binding signal (z-score)” value [1] was -0.191, the “glycan array binding signal (z-score)” value [2] was -0.264 and the “glycan array binding signal (z-score)” value [3] was -0.269. The “glycan array binding signal (z-score)” value [4] was -0.202, the “glycan array binding signal (z-score)” value [5] was -0.251 and the “glycan array binding signal (z-score)” value (Neu5Ac(b1-6)GalNAc) was -0.293. For the same binder, the “glycan array binding signal (z-score)” value [6] was -0.195, the “glycan array binding signal (z-score)” value [7] was -0.257 and the “glycan array binding signal (z-score)” value [8] was -0.196. The “glycan array binding signal (z-score)” value [9] was -0.296, the “glycan array binding signal (z-score)” value (Neu5Gc(a2-3)Gal(b1-4)Glc) was -0.225 and the “glycan array binding signal (z-score)” value [10] was -0.191. The “glycan array binding signal (z-score)” value [11] was -0.29, the “glycan array binding signal (z-score)” value [12] was -0.249 and the “glycan array binding signal (z-score)” value (Neu5Gc(a2-6)GalNAc) was -0.132.
